Data taken from the supplement of paper PMC4604168 (melanoma cell lines).
The list shows a part of the results. Repeats are few or missing, and single values can be far off.

How the values were obtained:
Assay in all cases: cell count relative to DMSO control; melanoma cells; higher = more viable cells
Conditions in all cases: library dose: low library concentration; 72 h; first compound 0.4 µM
[1] = tested on: MZ2-MEL
[2] = tested on: MeWo
[3] = tested on: RPMI7951
[4] = tested on: RVH-421
[5] = tested on: SkMel28
[6] = tested on: SkMel2
[7] = tested on: SkMel30
[8] = tested on: UACC62
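Further: cell number obtained by counting DAPI-stained nuclei in high-throughput microscope images with image analysis software, screen run in 1,536-well plates.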

## Cn1sc(=O)n(Cc2ccccc2)c1=O + Cn1nnc2c(C(N)=O)ncn2c1=O [temozolomide] (partner dose 2 µM)
[1]
  cell count: 95.8%
[2]
  cell count: 103%
[3]
  cell count: 98.5%
[4]
  cell count: 98.5%
[5]
  cell count: 105%
[6]
  cell count: 105%
[7]
  cell count: 97.4%
[8]
  cell count: 82.7%

## C[C@@H](N)c1ccc(C(=O)Nc2ccnc3[nH]ccc23)cc1 + Cn1c(Nc2ccc(C(F)(F)F)cc2)nc2cc(Oc3ccnc(-c4ncc(C(F)(F)F)[nH]4)c3)ccc21 [CHIR265] (partner dose 0.08 µM)
[1]
  cell count: 64%
[2]
  cell count: 74.2%
[3]
  cell count: 61%
[4]
  cell count: 66.1%
[5]
  cell count: 49.6%
[6]
  cell count: 89.1%
[7]
  cell count: 84.4%
[8]
  cell count: 63.1%

## C[C@@H](N)c1ccc(C(=O)Nc2ccnc3[nH]ccc23)cc1 + Nc1ccn([C@@H]2O[C@H](CO)[C@@H](O)C2(F)F)c(=O)n1 [gemcitabine] (partner dose 0.0004 µM)
[1]
  cell count: 69.5%
[2]
  cell count: 65.4%
[3]
  cell count: 93.3%
[4]
  cell count: 65.4%
[5]
  cell count: 66.2%
[6]
  cell count: 106%
[7]
  cell count: 111%
[8]
  cell count: 83.4%

## Cn1sc(=O)n(Cc2ccccc2)c1=O + CNC(=O)c1cc(Oc2ccc(NC(=O)Nc3ccc(Cl)c(C(F)(F)F)c3)cc2)ccn1 [sorafenib] (partner dose 0.4 µM)
[1]
  cell count: 94.4%
[2]
  cell count: 110%
[3]
  cell count: 75.2%
[4]
  cell count: 99%
[5]
  cell count: 118%
[6]
  cell count: 99.5%
[7]
  cell count: 90.4%
[8]
  cell count: 105%

## CCCCCCCCCCCCCCCCCCOP(=O)([O-])OC1CC[N+](C)(C)CC1 [Perifosine] + O=C(O)[C@@H]1[O][Sb](=[O])([O][Sb]2(=[O])[O][C@H]([C@H](O)CO)[C@H](O)[C@H](C(=O)O)[O]2)[O][C@H]([C@H](O)CO)[C@@H]1O [stibogluconate] (partner dose 2 µM)
[1]
  cell count: 98.7%
[2]
  cell count: 105%
[3]
  cell count: 87.9%
[4]
  cell count: 83.4%
[5]
  cell count: 86.2%
[6]
  cell count: 97.7%
[7]
  cell count: 99.2%
[8]
  cell count: 92.6%

## Cn1sc(=O)n(Cc2ccccc2)c1=O + OCc1c[nH]c2ccccc12 [Indole-3-carbinol] (partner dose 0.8 µM)
[1]
  cell count: 110%
[2]
  cell count: 103%
[3]
  cell count: 126%
[4]
  cell count: 122%
[5]
  cell count: 111%
[6]
  cell count: 107%
[7]
  cell count: 89.6%
[8]
  cell count: 94.1%

## C[C@@H](N)c1ccc(C(=O)Nc2ccnc3[nH]ccc23)cc1 + COCC[n+]1c2c(n(Cc3cnccn3)c1C)C(=O)c1ccccc1C2=O [YM155] (partner dose 0.0004 µM)
[1]
  cell count: 30.1%
[2]
  cell count: 74.7%
[3]
  cell count: 75%
[4]
  cell count: 80.4%
[5]
  cell count: 78.3%
[6]
  cell count: 88.7%
[7]
  cell count: 99.4%
[8]
  cell count: 84.6%

## Cn1sc(=O)n(Cc2ccccc2)c1=O + Cn1c(Nc2ccc(C(F)(F)F)cc2)nc2cc(Oc3ccnc(-c4ncc(C(F)(F)F)[nH]4)c3)ccc21 [CHIR265] (partner dose 0.08 µM)
[1]
  cell count: 77.1%
[2]
  cell count: 79.5%
[3]
  cell count: 49.2%
[4]
  cell count: 72.3%
[5]
  cell count: 77%
[6]
  cell count: 87.9%
[7]
  cell count: 55.3%
[8]
  cell count: 64.2%

## C[C@@H](N)c1ccc(C(=O)Nc2ccnc3[nH]ccc23)cc1 + CCCCCCCCc1ccc(CCC(N)(CO)CO)cc1 [fingolimod] (partner dose 2 µM)
[1]
  cell count: 74.7%
[2]
  cell count: 63.8%
[3]
  cell count: 81%
[4]
  cell count: 95.5%
[5]
  cell count: 80.3%
[6]
  cell count: 99%
[7]
  cell count: 121%
[8]
  cell count: 87.9%

## CCCCCCCCCCCCCCCCCCOP(=O)([O-])OC1CC[N+](C)(C)CC1 [Perifosine] + Nc1ccn([C@@H]2O[C@H](CO)[C@@H](O)C2(F)F)c(=O)n1 [gemcitabine] (partner dose 0.0004 µM)
[1]
  cell count: 103%
[2]
  cell count: 100%
[3]
  cell count: 52.9%
[4]
  cell count: 95.8%
[5]
  cell count: 87.5%
[6]
  cell count: 101%
[7]
  cell count: 93.5%
[8]
  cell count: 90%

## CCCCCCCCCCCCCCCCCCOP(=O)([O-])OC1CC[N+](C)(C)CC1 [Perifosine] + C[C@]1(O)C[C@@H](c2nc(-c3ccc4ccc(-c5ccccc5)nc4c3)c3c(N)nccn32)C1 [OSI906] (partner dose 0.4 µM)
[1]
  cell count: 83.7%
[2]
  cell count: 90%
[3]
  cell count: 71.4%
[4]
  cell count: 77.5%
[5]
  cell count: 64.9%
[6]
  cell count: 84.9%
[7]
  cell count: 70.1%
[8]
  cell count: 74.6%

## CCCCCCCCCCCCCCCCCCOP(=O)([O-])OC1CC[N+](C)(C)CC1 [Perifosine] + COc1ccc(Cl)c(Nc2nc3ccccc3nc2NS(=O)(=O)c2cccc(NC(=O)C(C)(C)N)c2)c1 [XL147] (partner dose 0.8 µM)
[1]
  cell count: 98.8%
[2]
  cell count: 105%
[3]
  cell count: 84.7%
[4]
  cell count: 94.3%
[5]
  cell count: 142%
[6]
  cell count: 106%
[7]
  cell count: 99.7%
[8]
  cell count: 119%

## C[C@@H](N)c1ccc(C(=O)Nc2ccnc3[nH]ccc23)cc1 + C=CCNC1=C2C[C@@H](C)C[C@H](OC)[C@H](O)[C@@H](C)/C=C(\C)[C@H](OC(N)=O)[C@@H](OC)/C=C\C=C(/C)C(=O)NC(=CC1=O)C2=O [Tanespimycin] (partner dose 0.002 µM)
[1]
  cell count: 83.9%
[2]
  cell count: 78.3%
[3]
  cell count: 78.6%
[4]
  cell count: 88.5%
[5]
  cell count: 83.7%
[6]
  cell count: 102%
[7]
  cell count: 121%
[8]
  cell count: 83.7%

## Cn1sc(=O)n(Cc2ccccc2)c1=O + COc1ccc(C2=N[C@@H](c3ccc(Cl)cc3)[C@@H](c3ccc(Cl)cc3)N2C(=O)N2CCNC(=O)C2)c(OC(C)C)c1 [Nutlin-3] (partner dose 0.1 µM)
[1]
  cell count: 109%
[2]
  cell count: 94.8%
[3]
  cell count: 110%
[4]
  cell count: 81.5%
[5]
  cell count: 95.7%
[6]
  cell count: 92.4%
[7]
  cell count: 89.3%
[8]
  cell count: 104%

## C[C@@H](N)c1ccc(C(=O)Nc2ccnc3[nH]ccc23)cc1 + C=C(c1ccc(C(=O)O)cc1)c1cc2c(cc1C)C(C)(C)CCC2(C)C [Bexarotene] (partner dose 2 µM)
[1]
  cell count: 71.9%
[2]
  cell count: 63.5%
[3]
  cell count: 67.1%
[4]
  cell count: 85.4%
[5]
  cell count: 61.3%
[6]
  cell count: 82.5%
[7]
  cell count: 94.6%
[8]
  cell count: 72.6%

## Cn1sc(=O)n(Cc2ccccc2)c1=O + CC(C)C[C@H](NC(=O)[C@H](Cc1ccccc1)NC(=O)c1cnccn1)B(O)O [Bortezomib] (partner dose 0.001 µM)
[1]
  cell count: 102%
[2]
  cell count: 93.6%
[3]
  cell count: 83.3%
[4]
  cell count: 86.8%
[5]
  cell count: 91.4%
[6]
  cell count: 107%
[7]
  cell count: 115%
[8]
  cell count: 108%

## CCCCCCCCCCCCCCCCCCOP(=O)([O-])OC1CC[N+](C)(C)CC1 [Perifosine] + Cc1ccc(Nc2nccc(N(C)c3ccc4c(C)n(C)nc4c3)n2)cc1S(N)(=O)=O [Pazopanib] (partner dose 0.4 µM)
[1]
  cell count: 73.4%
[2]
  cell count: 103%
[3]
  cell count: 67.9%
[4]
  cell count: 73.1%
[5]
  cell count: 100%
[6]
  cell count: 100%
[7]
  cell count: 78.4%
[8]
  cell count: 97.5%

## C[C@@H](N)c1ccc(C(=O)Nc2ccnc3[nH]ccc23)cc1 + O=C(O)[C@@H]1[O][Sb](=[O])([O][Sb]2(=[O])[O][C@H]([C@H](O)CO)[C@H](O)[C@H](C(=O)O)[O]2)[O][C@H]([C@H](O)CO)[C@@H]1O [stibogluconate] (partner dose 2 µM)
[1]
  cell count: 78.5%
[2]
  cell count: 74.5%
[3]
  cell count: 81%
[4]
  cell count: 93.3%
[5]
  cell count: 68%
[6]
  cell count: 98.9%
[7]
  cell count: 143%
[8]
  cell count: 89.8%

## C[C@@H](N)c1ccc(C(=O)Nc2ccnc3[nH]ccc23)cc1 + NC1(c2ccc(-c3nc4ccn5c(=O)[nH]nc5c4cc3-c3ccccc3)cc2)CCC1 [MK2206] (partner dose 0.4 µM)
[1]
  cell count: 65.2%
[2]
  cell count: 55.6%
[3]
  cell count: 61.1%
[4]
  cell count: 69%
[5]
  cell count: 44.6%
[6]
  cell count: 92.9%
[7]
  cell count: 112%
[8]
  cell count: 71.5%

## Cn1sc(=O)n(Cc2ccccc2)c1=O + Nc1ncn([C@H]2C[C@H](O)[C@@H](CO)O2)c(=O)n1 [decitabine] (partner dose 0.1 µM)
[1]
  cell count: 89.2%
[2]
  cell count: 101%
[3]
  cell count: 82.8%
[4]
  cell count: 84.2%
[5]
  cell count: 95.4%
[6]
  cell count: 101%
[7]
  cell count: 79.2%
[8]
  cell count: 97.9%

## Cn1sc(=O)n(Cc2ccccc2)c1=O + CCN(CC)CCNC(=O)c1c(C)[nH]c(/C=C2\C(=O)Nc3ccc(F)cc32)c1C [sunitinib] (partner dose 0.4 µM)
[1]
  cell count: 105%
[2]
  cell count: 94.5%
[3]
  cell count: 127%
[4]
  cell count: 108%
[5]
  cell count: 110%
[6]
  cell count: 140%
[7]
  cell count: 88.4%
[8]
  cell count: 110%

## Cn1sc(=O)n(Cc2ccccc2)c1=O + NC(=O)c1ccc(N(C(N)=O)c2c(F)cccc2F)nc1-c1ccc(F)cc1F [VX702] (partner dose 0.4 µM)
[1]
  cell count: 101%
[2]
  cell count: 86.7%
[3]
  cell count: 94%
[4]
  cell count: 87.1%
[5]
  cell count: 100%
[6]
  cell count: 2.21%
[7]
  cell count: 126%
[8]
  cell count: 105%

## CCCCCCCCCCCCCCCCCCOP(=O)([O-])OC1CC[N+](C)(C)CC1 [Perifosine] + Nc1cccc2c1CN(C1CCC(=O)NC1=O)C2=O [lenalidomide] (partner dose 1 µM)
[1]
  cell count: 102%
[2]
  cell count: 93.5%
[3]
  cell count: 90.9%
[4]
  cell count: 84.4%
[5]
  cell count: 93%
[6]
  cell count: 97.7%
[7]
  cell count: 91.1%
[8]
  cell count: 88.5%

## CCCCCCCCCCCCCCCCCCOP(=O)([O-])OC1CC[N+](C)(C)CC1 [Perifosine] + NC1(c2ccc(-c3nc4ccn5c(=O)[nH]nc5c4cc3-c3ccccc3)cc2)CCC1 [MK2206] (partner dose 0.4 µM)
[1]
  cell count: 89.1%
[2]
  cell count: 80.7%
[3]
  cell count: 83.6%
[4]
  cell count: 81.9%
[5]
  cell count: 67.1%
[6]
  cell count: 79.5%
[7]
  cell count: 95.4%
[8]
  cell count: 69%

## CCCCCCCCCCCCCCCCCCOP(=O)([O-])OC1CC[N+](C)(C)CC1 [Perifosine] + Nc1nc(F)nc2c1ncn2[C@@H]1O[C@H](CO)[C@@H](O)[C@@H]1O [fludarabine] (partner dose 0.2 µM)
[1]
  cell count: 99.8%
[2]
  cell count: 43%
[3]
  cell count: 82.7%
[4]
  cell count: 107%
[5]
  cell count: 89.5%
[6]
  cell count: 16.2%
[7]
  cell count: 17.5%
[8]
  cell count: 85.1%

## Cn1sc(=O)n(Cc2ccccc2)c1=O + Cn1c(=O)n(-c2ccc(C(C)(C)C#N)cc2)c2c3cc(-c4cnc5ccccc5c4)ccc3ncc21 [NVP-BEZ235] (partner dose 0.004 µM)
[1]
  cell count: 95.8%
[2]
  cell count: 86.6%
[3]
  cell count: 101%
[4]
  cell count: 79.2%
[5]
  cell count: 88.8%
[6]
  cell count: 91.4%
[7]
  cell count: 90.7%
[8]
  cell count: 103%

## CCCCCCCCCCCCCCCCCCOP(=O)([O-])OC1CC[N+](C)(C)CC1 [Perifosine] + O=c1[nH]nc(Sc2ncc([N+](=O)[O-])s2)n1-c1ccc2c(c1)OCCO2 [BI78D3] (partner dose 0.2 µM)
[1]
  cell count: 98%
[2]
  cell count: 107%
[3]
  cell count: 69.7%
[4]
  cell count: 101%
[5]
  cell count: 91.1%
[6]
  cell count: 96.2%
[7]
  cell count: 90.8%
[8]
  cell count: 105%
